From PubChem BioAssay AID1460 (National Center for Advancing Translational Sciences (NCATS), 2008)
The campaign covered roughly 270,000 compounds. About 5,800 (2.1%) were called active. This list was built around the results that the source calls inconclusive (neither active nor inactive); the mix of calls is not that of the screen. The call rests on the fitted dose curve; in most records, active means well fitted inhibition curve with a large enough effect; inconclusive means small, poorly fitted or top-dose-only effect; inactive means flat fitted curve, though single readings scatter. Where the call is inconclusive, the potency comes from a doubtful curve fit.

What follows are compounds tested against Microtubule-associated protein tau (Homo sapiens) (UniProt P10636) (assay: qHTS for Inhibitors of Tau Fibril Formation, Thioflavin T Binding). Conditions: recombinant tau K18 P301L (four-repeat tau fragment), heparin-induced fibrillization, ThT fluorescence; series mostly up to 57.4 µM.
Chain of UniProt P10636 (P10636 whole entry, looked up, the tested form may be a part): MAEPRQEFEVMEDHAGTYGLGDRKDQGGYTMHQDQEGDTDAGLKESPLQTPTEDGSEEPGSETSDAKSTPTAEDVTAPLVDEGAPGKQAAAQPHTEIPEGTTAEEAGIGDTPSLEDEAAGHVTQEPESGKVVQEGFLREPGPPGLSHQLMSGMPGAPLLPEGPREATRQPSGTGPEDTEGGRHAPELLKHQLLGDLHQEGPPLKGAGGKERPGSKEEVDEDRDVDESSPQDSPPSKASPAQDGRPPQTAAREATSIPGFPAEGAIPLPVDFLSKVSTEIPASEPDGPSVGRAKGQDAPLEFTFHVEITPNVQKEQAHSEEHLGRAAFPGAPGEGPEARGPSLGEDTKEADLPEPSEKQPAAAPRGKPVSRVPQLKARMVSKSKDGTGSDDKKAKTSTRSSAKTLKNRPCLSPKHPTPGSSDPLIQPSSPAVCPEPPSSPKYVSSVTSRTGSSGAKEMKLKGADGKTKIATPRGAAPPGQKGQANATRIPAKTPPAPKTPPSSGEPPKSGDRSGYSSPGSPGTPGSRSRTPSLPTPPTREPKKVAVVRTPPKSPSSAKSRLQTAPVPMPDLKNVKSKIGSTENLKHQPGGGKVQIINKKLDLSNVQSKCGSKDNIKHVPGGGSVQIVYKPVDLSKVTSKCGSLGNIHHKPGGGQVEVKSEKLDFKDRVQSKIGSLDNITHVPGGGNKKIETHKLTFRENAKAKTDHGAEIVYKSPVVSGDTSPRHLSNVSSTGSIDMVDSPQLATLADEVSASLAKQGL
Method in brief: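 Recombinant human tau K18 fragment […] carrying P301L, 15 uM unlabeled plus 0.24 uM Alexa 594-labeled, was fibrillized with 20 uM heparin in 100 mM sodium acetate pH 7 for 6 hr at 37 C; 30 uM ThT fluorescence read after 1 hr.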
Further: nearly all actives have a fitted effect of over 55% in size.
Potency means the concentration at half of the fitted maximal effect; tags describe the fitted curve by direction and shape.

SMILES | Potency
CC(C)Nc1ccc(C(CC(N)=O)NC(=O)Cc2cccc3ccccc23)cc1[N+](=O)[O-] (stereo not drawn) | inconclusive: 10 µM [inhibitor, partial curve]
CCc1ccc(Nc2ncnc3sc4c(c23)CCCC4)cc1 | inconclusive: 11.2 µM [inhibitor, partial curve]
O=C(NCCc1ccccc1)c1cc(-c2cccc(Cl)c2)on1 | inconclusive: 2.82 µM [inhibitor, partial curve]
CC[n+]1c(C)sc2cc(C)ccc21 | inconclusive: 7.94 µM [inhibitor, partial curve, poor fit]
COc1ccc(CNc2n[nH]c(-c3ccco3)n2)cc1OC | inactive
COC(=O)c1ccc(NC(=O)CSc2nnc(CNc3ccc(F)cc3)n2C)cc1 | inconclusive: 4.47 µM [inhibitor, partial curve]
COc1ccc(-c2cc(C3CCN(c4ccc(C(C)=O)cc4[N+](=O)[O-])CC3)[nH]n2)cc1 | active: 3.55 µM
CC(C)(C)c1ccc(NC(=O)COC(=O)c2ccc(NS(=O)(=O)c3ccc(F)c(F)c3)cc2)cc1 | inactive
COC(=O)N/N=C/c1cc(OC)c(O)c([N+](=O)[O-])c1 | inconclusive: 12.6 µM [inhibitor, partial curve]
C(=C\c1cccc2ccccc12)/c1nnc(-c2cccs2)o1 | inconclusive: 11.2 µM [inhibitor, partial curve]
Cc1nnc(N2CCC(C(=O)N3CCCCC3)CC2)c2nn(-c3ccccc3)c(C)c12 | inactive
COc1ccc(/C=C/c2nc(C#N)c(N3CCCCCC3)o2)cc1OC | inconclusive: 12.6 µM [inhibitor, partial curve]
CCOc1ccccc1-n1c(SCC(N)=O)nc2ccccc2c1=O | inactive
Cc1ccc(NC(=O)c2cc3c(s2)CCC3)cc1S(=O)(=O)N1CCOCC1 | inactive
CCCCCCCC/C=C\CCCCCCCC(=O)O | inconclusive: 28.2 µM [inhibitor, single point]
Fc1ccc([C@@H]2Nc3ccccc3[C@@H]3C=CC[C@@H]32)cc1 | inconclusive: 31.6 µM [inhibitor, partial curve]
CCC1CCCCN1Cc1cc(OC)c(O)c([N+](=O)[O-])c1 (stereo not drawn) | inconclusive: 39.8 µM [inhibitor, single point]
CCOc1ccc(/C=C/C(=O)c2cc(Br)ccc(=O)c2O)cc1 | active: 4.47 µM
CCOc1ccc(C(=O)NC(=S)Nc2ccccn2)cc1[N+](=O)[O-] | inconclusive: 15.8 µM [inhibitor, partial curve]
C=CCOC(=O)C1=C[C@@H](c2cn(C(C)=O)c3ccccc23)C[C@@H](OCCCCO)O1 | inconclusive: 22.4 µM [inhibitor, single point]
CCOc1cc(N2CCOCC2)c(OCC)cc1NS(=O)(=O)c1ccc(Cl)s1 | inconclusive: 11.2 µM [inhibitor, partial curve]
COc1cccc(C(=O)Nc2ccc3nc(N4CCN(c5ncccn5)CC4)cc(C)c3c2)c1OC | active: 8.91 µM
CCn1c2c(c(=O)n3ncc(C(=O)Nc4ccc(OC(F)(F)F)cc4)c13)CN(Cc1ccc(OC)cc1)CC2 | inconclusive: 25.1 µM [inhibitor, single point]

SMILES | Potency
O=C(Nc1cc(-c2nc3cc(Cl)ccc3o2)ccc1Cl)c1cccc2ccccc12 | inactive
O=C(N/N=C/c1ccccn1)c1cc(-c2ccccc2Cl)n[nH]1 | inconclusive: 1.78 µM [inhibitor, full curve]
CN(C)c1ccc(NC(=S)NC(=O)/C=C/c2ccc(Cl)cc2)cc1 | active: 10 µM
O=c1oc2ccccc2c(Nc2ccccc2O)c1[N+](=O)[O-] | inconclusive: 35.5 µM [inhibitor, partial curve]
S=C(Nc1ccccc1)Nc1ccc(Cl)cc1Cl | inactive
CC(=O)c1cccc(NC(=O)Cn2c(=O)oc3cc(S(=O)(=O)NCc4ccccc4)ccc32)c1 | inactive
COc1ccc(OCc2ccc(-c3nc(C#N)c(N4CCC(C(N)=O)CC4)o3)o2)cc1 | inconclusive: 28.2 µM [inhibitor, single point]
O=C(COc1ccc([N+](=O)[O-])cc1)NNC(=S)NC(=O)c1ccc(Br)cc1 | inconclusive: 5.01 µM [inhibitor, partial curve]
COc1cc(NC(=O)c2cc3nc(-c4ccc(C)cc4)cc(C(F)(F)F)n3n2)cc(OC)c1OC | inconclusive: 7.08 µM [inhibitor, full curve]
Cn1c2ccccc2c2cc([N+](=O)[O-])ccc21 | inconclusive: 6.31 µM [inhibitor, partial curve, poor fit]
CN1CCN(S(=O)(=O)c2ccc(NC(=O)Nc3cccc(Cl)c3)cc2)CC1 | inconclusive: 17.8 µM [activator, partial curve]
Cc1ccccc1C(=O)OCc1nnc(-c2ccc(Cl)cc2)o1 | inconclusive: 10 µM [inhibitor, partial curve]
CC(=O)N1CCN(c2cc(N3CCc4ccccc4C3)c(F)cc2[N+](=O)[O-])CC1 | active: 15.8 µM
O=C(c1ccc(Nc2nc3ccccc3n3nnnc23)cc1)N1CCN(c2ccc(F)cc2)CC1 | inconclusive: 31.6 µM [inhibitor, single point]
O=C1c2ccc([N+](=O)[O-])cc2NC(c2ccco2)N1/N=C/c1ccco1 (stereo not drawn) | active: 12.6 µM
Cc1nnc(Sc2cc(NCCO)c([N+](=O)[O-])c3nonc23)s1 | active: 7.94 µM
O=C1CC(=O)N(Cc2ccco2)C(=O)N1 | inconclusive: 12.6 µM [inhibitor, partial curve]
CCc1ccc(S(=O)(=O)/N=C2/C=C(Sc3ncn[nH]3)C(=O)c3ccccc32)cc1 | active: 3.98 µM
O=C(Oc1ccc2c(c1)O/C(=C\c1ccncc1)C2=O)c1cccs1 | inconclusive: 22.4 µM [inhibitor, partial curve]
CNc1nc(C)c(C(C)=O)cc1C#N | inactive
CCCCC(=O)Nc1ccc(C(=O)NNC(=S)NC(=O)c2ccccc2[N+](=O)[O-])cc1 | inconclusive: 39.8 µM [inhibitor, single point]
CCOc1nc(NC(=O)NS(=O)(=O)Oc2cccc(Cl)c2)nc(-c2ccccc2)n1 | inconclusive: 1.12 µM [inhibitor, partial curve, poor fit]
COc1ccccc1CNc1ccc(-c2nc(-c3ccccc3C)no2)cc1[N+](=O)[O-] | inactive

SMILES | Potency
Cc1ccc(NC(=O)CCSc2nnc(-c3ccco3)o2)cc1 | inconclusive: 39.8 µM [inhibitor, single point]
COc1ccc(C2=NN3C(=O)c4c(ccc(OC)c4OC)C3C2)cc1 (stereo not drawn) | inconclusive: 10 µM [inhibitor, partial curve, poor fit]
CCCCCCC(=O)Nc1nc(C)c(-c2csc(Nc3ccccc3OC)n2)s1 | inconclusive: 3.55 µM [inhibitor, full curve]
Cc1c(Cl)cccc1N1C(=O)C(N2C(=O)c3cccc([N+](=O)[O-])c3C2=O)C1c1cccs1 (stereo not drawn) | inactive
CCC(C)n1c(-c2cc(OC)c(OC)c(OC)c2)nc2nc3ccccc3nc21 (stereo not drawn) | inconclusive: 15.8 µM [inhibitor, partial curve, poor fit]
CCCCCC(=O)N/N=C/c1ccc([N+](=O)[O-])o1 | inconclusive: 39.8 µM [inhibitor, single point]
CC1CC1C(=O)OCC(=O)Nc1ccccc1Oc1ccccc1 (stereo not drawn) | inactive
Cc1ccc(-c2csc(/C(C#N)=C(\O)CCl)n2)cc1 | inconclusive: 10 µM [inhibitor, partial curve]
CC(=O)N1CCN(c2ccc([N+](=O)[O-])cc2)CC1 | inactive
O=C(O)CC1CCC(=C(Cl)Cl)C1 (stereo not drawn) | inconclusive: 35.5 µM [inhibitor, single point]
CCCc1cc(=O)[nH]c(SCC(=O)c2cc(C)n(C3CC3)c2C)n1 | inconclusive: 20 µM [inhibitor, single point]
COc1ccc(NC(=O)c2ccco2)cc1NC(=O)c1ccc(Br)o1 | inconclusive: 31.6 µM [inhibitor, partial curve, poor fit]
COc1ccc(CC2(CO)CCN(Cc3cccnc3)CC2)cc1 | inactive
Cc1ccn2c(Nc3ccc4c(c3)OCO4)c(-c3ccc(Cl)cc3)nc2c1 | inconclusive: 1.58 µM [inhibitor, full curve, poor fit]
C(=C\c1nccc2c1[nH]c1ccccc12)/c1ccccc1 | inconclusive: 20 µM [inhibitor, partial curve]
CCCCCCN(C(=O)CCCCCN1C(=O)NC(c2ccc3ccccc3c2)C(C(=O)OCc2ccccc2)=C1C)C(C(=O)NCCCC)c1ccc(OCC(=O)OC)c(C(=O)OC)c1 (stereo not drawn) | inconclusive: 2.82 µM [inhibitor, full curve]
O=C(O)CCSc1nnnn1-c1ccccc1 | inactive
Cc1cccc(NC(=O)c2n[nH]c([N+](=O)[O-])c2Br)c1C | inconclusive: 8.91 µM [inhibitor, partial curve]
Cc1nc2c(C)cccc2cc1C(=O)N/N=C/c1ccc(N(C)C)cc1 | active: 10 µM
Cc1cc(C)nc(SCc2cc(=O)c(OC(=O)c3cccc([N+](=O)[O-])c3)co2)n1 | inconclusive: 12.6 µM [inhibitor, partial curve]
COc1ccc(C2=NC3(CCCCCC3)N(CC(=O)Nc3cccc(Cl)c3)C2=O)cc1 | inactive
COc1ccc2oc(C(=O)C3CC3)c(N)c2c1 | inconclusive: 15.8 µM [inhibitor, partial curve, poor fit]
